Assay results taken from US9023789B2, “Amylin analogs and pharmaceutical compositions thereof” (Novo Nordisk A/S, priority 2012, dated 2015).
At least one read-out could not be matched to a standard name with certainty. Numbered stars: 1 amine (or outer) side, 2 acyl side, 3 side chain; on linkers, the order of the positions; unused ones are H or OH. Bridge positions count the residues as written; N and C are the ends. Side chains are listed from the residue outwards. Peptide text beside a SMILES is read from it. * marks the point of attachment. C20 diacid = O=C(O)CCCCCCCCCCCCCCCCCCC(=O)*; γGlu = O=C(O)[C@H](CCC(=O)[*:2])N[*:1]

Assay: ASSAY (III) ThT fibrillation assay for physical stability
Assay type: physicochemical
Summary of the method: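 Formulations with 1 μM ThT, pH adjusted as required, incubated at 37 °C with 960 rpm orbital shaking; fluorescence (ex 444/em 485 nm) read every 20 min. Fibrillation reported as mean ThT fluorescence ± SD of 4–8 replicates at time points; polypeptide concentration measured by reverse-phase HPLC before and after, post-centrifugation.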
In the case of `CC[C@H](C)[C@H](NC(=O)[C@H](C)NC(=O)CNC(=O)[C@H](Cc1ccccc1)NC(=O)[C@H](CC(N)=O)NC(=O)[C@@H]1CCCN1C(=O)[C@H](CO)NC(=O)[C@H](CO)NC(=O)[C@H](Cc1c[nH]cn1)NC(=O)[C@H](CCCNC(=N)N)NC(=O)[C@H](CC(C)C)NC(=O)[C@H](Cc1ccccc1)NC(=O)[C@H](CCC(=O)O)NC(=O)[C@H](C)NC(=O)[C@H](CC(C)C)NC(=O)[C@H](CCCNC(=N)N)NC(=O)[C@H](CCC(N)=O)NC(=O)[C@@H](NC(=O)[C@H](C)NC(=O)[C@@H]1CSSC[C@H](NC(=O)[C@@H](N)CCCCNC(=O)CC[C@H](NC(=O)CCCCCCCCCCCCCCCCCCC(=O)O)C(=O)O)C(=O)N[C@@H](CC(N)=O)C(=O)N[C@@H]([C@@H](C)O)C(=O)N[C@@H](C)C(=O)N[C@@H]([C@@H](C)O)C(=O)N1)[C@@H](C)O)C(=O)N1CCC[C@H]1C(=O)N[C@@H](CO)C(=O)N[C@@H](CO)C(=O)N[C@H](C(=O)N[C@@H](CC(N)=O)C(=O)N[C@H](C(=O)NCC(=O)N1CCC[C@H]1C(=O)N[C@@H](CCC(=O)O)C(=O)N[C@H](C(=O)N[C@@H](Cc1ccc(O)cc1)C(N)=O)[C@@H](C)O)C(C)C)[C@@H](C)O` [Example 109] (H-K([γGlu-C20 diacid])CNTATCATQRLAEFLRHSSPNFGAIPSSTNVGPETY-NH2; disulfide 2-7 (inferred); N-terminus assumed), the “ThT pH 4.0 recovery (%)” value is reported as 43%.
In the case of `CC[C@H](C)[C@H](NC(=O)[C@H](C)NC(=O)CNC(=O)[C@H](Cc1ccccc1)NC(=O)[C@H](CC(N)=O)NC(=O)[C@@H]1CCCN1C(=O)[C@H](CO)NC(=O)[C@H](CO)NC(=O)[C@H](Cc1c[nH]cn1)NC(=O)[C@H](CCCNC(=N)N)NC(=O)[C@H](CC(C)C)NC(=O)[C@H](Cc1ccccc1)NC(=O)[C@H](CCC(=O)O)NC(=O)[C@H](C)NC(=O)[C@H](CC(C)C)NC(=O)[C@H](CCCNC(=N)N)NC(=O)[C@H](CCC(N)=O)NC(=O)[C@@H](NC(=O)[C@H](C)NC(=O)[C@@H]1CSSC[C@H](NC(=O)[C@@H](N)CCCCNC(=O)CC[C@H](NC(=O)CC[C@H](NC(=O)CCCCCCCCCCCCCCCCCCC(=O)O)C(=O)O)C(=O)O)C(=O)N[C@@H](CC(N)=O)C(=O)N[C@@H]([C@@H](C)O)C(=O)N[C@@H](C)C(=O)N[C@@H]([C@@H](C)O)C(=O)N1)[C@@H](C)O)C(=O)N1CCC[C@H]1C(=O)N[C@@H](CO)C(=O)N[C@@H](CO)C(=O)N[C@H](C(=O)N[C@@H](CC(N)=O)C(=O)N[C@H](C(=O)NCC(=O)N1CCC[C@H]1C(=O)N[C@@H](CCCNC(=N)N)C(=O)N[C@H](C(=O)N[C@@H](Cc1ccc(O)cc1)C(N)=O)[C@@H](C)O)C(C)C)[C@@H](C)O` [Example 110] (H-K([γGlu-γGlu-C20 diacid])CNTATCATQRLAEFLRHSSPNFGAIPSSTNVGPRTY-NH2; disulfide 2-7), the “ThT pH 4.0 recovery (%)” value is reported as 3%.
For `CC[C@H](C)[C@H](NC(=O)[C@H](C)NC(=O)CNC(=O)[C@H](Cc1ccccc1)NC(=O)[C@H](CC(N)=O)NC(=O)[C@@H]1CCCN1C(=O)[C@H](CO)NC(=O)[C@H](CO)NC(=O)[C@H](Cc1c[nH]cn1)NC(=O)[C@H](CCCNC(=N)N)NC(=O)[C@H](CC(C)C)NC(=O)[C@H](Cc1ccccc1)NC(=O)[C@H](CC(N)=O)NC(=O)[C@H](C)NC(=O)[C@H](CC(C)C)NC(=O)[C@H](CCCNC(=N)N)NC(=O)[C@H](CCC(N)=O)NC(=O)[C@@H](NC(=O)[C@H](C)NC(=O)[C@@H]1CSSC[C@H](NC(=O)[C@@H](N)CCCCNC(=O)CC[C@H](NC(=O)CCCCCCCCCCCCCCC(=O)O)C(=O)O)C(=O)N[C@@H](CC(N)=O)C(=O)N[C@@H]([C@@H](C)O)C(=O)N[C@@H](C)C(=O)N[C@@H]([C@@H](C)O)C(=O)N1)[C@@H](C)O)C(=O)N1CCC[C@H]1C(=O)N[C@@H](CO)C(=O)N[C@@H](CO)C(=O)N[C@H](C(=O)N[C@@H](CC(N)=O)C(=O)N[C@H](C(=O)NCC(=O)N[C@@H](Cc1c[nH]cn1)C(=O)N[C@@H](CC(N)=O)C(=O)N[C@H](C(=O)N[C@@H](Cc1ccc(O)cc1)C(N)=O)[C@@H](C)O)C(C)C)[C@@H](C)O` [Example 111], the “ThT pH 4.0 recovery (%)” value was 79%.
In the case of `CC[C@H](C)[C@H](NC(=O)[C@H](C)NC(=O)CNC(=O)[C@H](Cc1ccccc1)NC(=O)[C@H](CC(N)=O)NC(=O)[C@@H]1CCCN1C(=O)[C@H](CO)NC(=O)[C@H](CO)NC(=O)[C@H](Cc1c[nH]cn1)NC(=O)[C@H](CCCNC(=N)N)NC(=O)[C@H](CC(C)C)NC(=O)[C@H](Cc1ccccc1)NC(=O)[C@H](CC(N)=O)NC(=O)[C@H](C)NC(=O)[C@H](CC(C)C)NC(=O)[C@H](CCCNC(=N)N)NC(=O)[C@H](CCC(N)=O)NC(=O)[C@@H](NC(=O)[C@H](C)NC(=O)[C@@H]1CSSC[C@H](NC(=O)[C@@H](N)CCCCNC(=O)CC[C@H](NC(=O)CCCCCCCCCCCCC(=O)O)C(=O)O)C(=O)N[C@@H](CC(N)=O)C(=O)N[C@@H]([C@@H](C)O)C(=O)N[C@@H](C)C(=O)N[C@@H]([C@@H](C)O)C(=O)N1)[C@@H](C)O)C(=O)N1CCC[C@H]1C(=O)N[C@@H](CO)C(=O)N[C@@H](CO)C(=O)N[C@H](C(=O)N[C@@H](CC(N)=O)C(=O)N[C@H](C(=O)NCC(=O)N[C@@H](Cc1c[nH]cn1)C(=O)N[C@@H](CC(N)=O)C(=O)N[C@H](C(=O)N[C@@H](Cc1ccc(O)cc1)C(N)=O)[C@@H](C)O)C(C)C)[C@@H](C)O` [Example 112], the “ThT pH 4.0 recovery (%)” value is reported as 86%.
For `CC[C@H](C)[C@H](NC(=O)[C@H](C)NC(=O)CNC(=O)[C@H](Cc1ccccc1)NC(=O)[C@H](CC(N)=O)NC(=O)[C@@H]1CCCN1C(=O)[C@H](CO)NC(=O)[C@H](CO)NC(=O)[C@H](Cc1c[nH]cn1)NC(=O)[C@H](CCCNC(=N)N)NC(=O)[C@H](CC(C)C)NC(=O)[C@H](Cc1ccccc1)NC(=O)[C@H](CC(N)=O)NC(=O)[C@H](C)NC(=O)[C@H](CC(C)C)NC(=O)[C@H](CCCNC(=N)N)NC(=O)[C@H](CCC(N)=O)NC(=O)[C@@H](NC(=O)[C@H](C)NC(=O)[C@@H]1CSSC[C@H](NC(=O)[C@@H](N)CCCCNC(=O)CC[C@H](NC(=O)CCCCCCCCCCCCCCCCC(=O)O)C(=O)O)C(=O)N[C@@H](CC(N)=O)C(=O)N[C@@H]([C@@H](C)O)C(=O)N[C@@H](C)C(=O)N[C@@H]([C@@H](C)O)C(=O)N1)[C@@H](C)O)C(=O)N1CCC[C@H]1C(=O)N[C@@H](CO)C(=O)N[C@@H](CO)C(=O)N[C@H](C(=O)N[C@@H](CC(N)=O)C(=O)N[C@H](C(=O)NCC(=O)N[C@@H](Cc1c[nH]cn1)C(=O)N[C@@H](CC(N)=O)C(=O)N[C@H](C(=O)N[C@@H](Cc1ccc(O)cc1)C(N)=O)[C@@H](C)O)C(C)C)[C@@H](C)O` [Example 113], the “ThT pH 4.0 recovery (%)” value was 89%.
In the case of `CC[C@H](C)[C@H](NC(=O)[C@H](C)NC(=O)CNC(=O)[C@H](Cc1ccccc1)NC(=O)[C@H](CC(N)=O)NC(=O)[C@@H]1CCCN1C(=O)[C@H](CO)NC(=O)[C@H](CO)NC(=O)[C@H](Cc1c[nH]cn1)NC(=O)[C@H](CCCNC(=N)N)NC(=O)[C@H](CC(C)C)NC(=O)[C@H](Cc1ccccc1)NC(=O)[C@H](CCC(=O)O)NC(=O)[C@H](C)NC(=O)[C@H](CC(C)C)NC(=O)[C@H](CCCNC(=N)N)NC(=O)[C@H](CCC(N)=O)NC(=O)[C@@H](NC(=O)[C@H](C)NC(=O)[C@@H]1CSSC[C@H](NC(=O)[C@@H](N)CCCCNC(=O)CC[C@H](NC(=O)CCCCCCCCCCCCCCCCCCC(=O)O)C(=O)O)C(=O)N[C@@H](CC(N)=O)C(=O)N[C@@H]([C@@H](C)O)C(=O)N[C@@H](C)C(=O)N[C@@H]([C@@H](C)O)C(=O)N1)[C@@H](C)O)C(=O)N1CCC[C@H]1C(=O)N[C@@H](CO)C(=O)N[C@@H](CO)C(=O)N[C@H](C(=O)N[C@@H](CC(N)=O)C(=O)N[C@H](C(=O)NCC(=O)N1CCC[C@H]1C(=O)N[C@@H](CC(N)=O)C(=O)N[C@H](C(=O)N1CCC[C@H]1C(N)=O)[C@@H](C)O)C(C)C)[C@@H](C)O` [Example 114] (H-K([γGlu-C20 diacid])CNTATCATQRLAEFLRHSSPNFGAIPSSTNVGPNTP-NH2; disulfide 2-7 (inferred); N-terminus assumed), the “ThT pH 4.0 recovery (%)” value is reported as 100%.
In the case of `CC[C@H](C)[C@H](NC(=O)[C@H](C)NC(=O)CNC(=O)[C@H](Cc1ccccc1)NC(=O)[C@H](CC(N)=O)NC(=O)[C@@H]1CCCN1C(=O)[C@H](CO)NC(=O)[C@H](CO)NC(=O)[C@H](Cc1c[nH]cn1)NC(=O)[C@H](CCCNC(=N)N)NC(=O)[C@H](CC(C)C)NC(=O)[C@H](Cc1ccccc1)NC(=O)[C@H](Cc1c[nH]cn1)NC(=O)[C@H](C)NC(=O)[C@H](CC(C)C)NC(=O)[C@H](CCCNC(=N)N)NC(=O)[C@H](CCC(N)=O)NC(=O)[C@@H](NC(=O)[C@H](C)NC(=O)[C@@H]1CSSC[C@H](NC(=O)[C@@H](N)CCCCNC(=O)CC[C@H](NC(=O)CCCCCCCCCCCCCCCCCCC(=O)O)C(=O)O)C(=O)N[C@@H](CC(N)=O)C(=O)N[C@@H]([C@@H](C)O)C(=O)N[C@@H](C)C(=O)N[C@@H]([C@@H](C)O)C(=O)N1)[C@@H](C)O)C(=O)N1CCC[C@H]1C(=O)N[C@@H](CO)C(=O)N[C@@H](CO)C(=O)N[C@H](C(=O)N[C@@H](CC(N)=O)C(=O)N[C@H](C(=O)NCC(=O)N1CCC[C@H]1C(=O)N[C@@H](CC(N)=O)C(=O)N[C@H](C(=O)N1CCC[C@H]1C(N)=O)[C@@H](C)O)C(C)C)[C@@H](C)O` [Example 115] (H-K([γGlu-C20 diacid])CNTATCATQRLAHFLRHSSPNFGAIPSSTNVGPNTP-NH2; disulfide 2-7 (inferred); N-terminus assumed), the “ThT pH 4.0 recovery (%)” value is reported as 100%.
